Screen size: about 310,000 compounds; about 14,000 (4.5%) showed an effect of 50% or more. The effect is printed as a negative number. The list shows a part of the results.
These molecules were tested against human ether-à-go-go-related gene (hERG) potassium channel (human, UniProt Q12809) (assay: primary screen, population patch clamp on CHO cells stably expressing hERG).
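Note: peak tail current of the secondary pulse compared with the same well before compound.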

Chain of human ether-à-go-go-related gene (hERG) potassium channel (Q12809 whole entry, looked up): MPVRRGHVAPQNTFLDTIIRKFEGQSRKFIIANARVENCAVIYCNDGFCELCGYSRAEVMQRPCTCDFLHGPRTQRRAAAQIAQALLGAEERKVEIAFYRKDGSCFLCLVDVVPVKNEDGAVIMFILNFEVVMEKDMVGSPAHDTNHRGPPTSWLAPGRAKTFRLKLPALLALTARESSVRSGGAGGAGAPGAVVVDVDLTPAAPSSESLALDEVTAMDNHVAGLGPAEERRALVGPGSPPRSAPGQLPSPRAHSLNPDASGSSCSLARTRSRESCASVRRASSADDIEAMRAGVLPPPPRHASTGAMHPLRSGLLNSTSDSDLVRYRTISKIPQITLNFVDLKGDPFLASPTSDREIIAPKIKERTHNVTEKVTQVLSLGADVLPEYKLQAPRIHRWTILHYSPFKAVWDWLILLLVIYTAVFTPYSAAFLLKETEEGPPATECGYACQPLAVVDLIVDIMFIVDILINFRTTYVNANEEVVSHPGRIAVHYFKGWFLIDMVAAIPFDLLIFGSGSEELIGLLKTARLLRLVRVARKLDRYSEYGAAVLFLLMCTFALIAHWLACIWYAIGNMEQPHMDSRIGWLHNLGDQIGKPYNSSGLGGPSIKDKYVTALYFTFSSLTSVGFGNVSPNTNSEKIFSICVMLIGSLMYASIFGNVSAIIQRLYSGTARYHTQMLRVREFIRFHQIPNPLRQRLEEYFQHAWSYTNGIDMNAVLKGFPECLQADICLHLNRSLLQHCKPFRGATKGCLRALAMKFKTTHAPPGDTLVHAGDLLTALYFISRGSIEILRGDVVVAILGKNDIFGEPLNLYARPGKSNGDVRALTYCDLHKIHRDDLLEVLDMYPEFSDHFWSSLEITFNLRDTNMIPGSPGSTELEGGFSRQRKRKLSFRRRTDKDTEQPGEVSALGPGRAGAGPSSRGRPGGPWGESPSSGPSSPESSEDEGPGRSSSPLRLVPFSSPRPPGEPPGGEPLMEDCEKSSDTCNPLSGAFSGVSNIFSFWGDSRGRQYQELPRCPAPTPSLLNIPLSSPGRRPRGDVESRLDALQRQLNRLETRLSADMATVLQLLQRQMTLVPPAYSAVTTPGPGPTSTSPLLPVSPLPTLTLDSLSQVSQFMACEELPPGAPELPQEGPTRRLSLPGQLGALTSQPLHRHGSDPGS

Row | Structure (SMILES) | hERG current change (%, negative = inhibition) at 10uM
1 | Cc1ccc(N(C)C(=O)CCS(=O)(=O)c2ccc3c(c2)oc(=O)n3C)cc1 | -6.76%
2 | Cc1cc2c(cc1S(=O)(=O)NCc1ccccc1Cl)OCCN2C | -7.97%
3 | Cc1ccc(NC(=O)C(C)Sc2nc(=O)cc(N)n2-c2ccccc2)cc1 (stereo not drawn) | 18.5%
4 | CCC(C)n1cnc2c(c1=O)c1nc3ccccc3nc1n2Cc1ccc(OC)cc1 (stereo not drawn) | -31.2%
5 | O=C(c1cccc(C(=O)N2CCN(c3ccccc3F)CC2)n1)N1CCN(c2ccccc2F)CC1 | -28.3%
6 | N#Cc1c2ccc([N+](=O)[O-])cc2[n+]([O-])n1-c1ccccc1 | 10.7%
7 | O=C(NC1CCCCC1)N1CCN(Cc2ccco2)CC1 | 11.8%
8 | O=C1/C(=C/Nc2ccc3c(c2)OCO3)CCc2ccccc21 | 1.21%
9 | COc1ccc(CN2CCN(CC3CC3)CC2CCO)cc1C (stereo not drawn) | -0.194%
10 | Cc1cccc(Nc2c([N+](=O)[O-])cc(C(=O)N3CC(=O)Nc4ccccc43)cc2[N+](=O)[O-])c1 | -7.96%
11 | Cc1ccc(S(=O)(=O)c2c(C)cc(-c3ccccc3)[nH]c2=O)cc1 | 8.91%
12 | COc1ccc(CC(=O)NCCS(=O)(=O)N2CCN(c3ccc(F)cc3)CC2)cc1OC | -28.1%
13 | C#CC(C)(C)NC(=S)NC1CC2C=CC1C2 (stereo not drawn) | 6.32%
14 | O=C(CSc1nnc(NC(=O)c2ccco2)s1)Nc1ccccc1 | 22.7%
15 | O=c1c(Cl)c(NCC2CCCO2)cnn1C12CC3CC(CC(C3)C1)C2 (stereo not drawn) | -29.3%
16 | CN(C)CCCNC(=O)c1cc(C(=O)c2ccccc2F)c[nH]1 | 1.23%
17 | O=C(O)c1cc(-c2ccccc2)nn1CC1CC(c2cccc([N+](=O)[O-])c2)=NO1 (stereo not drawn) | 19.1%
18 | COc1cc(SC)ccc1C(=O)OCC(=O)NC1CCCCC1 | 9.22%
19 | Cc1ccc(CN(C)C(=O)CCNS(=O)(=O)c2ccccc2)o1 | 0.979%
20 | CCCc1nnc(NC(=O)CSc2nc3ccccc3[nH]2)s1 | 0.62%
21 | COc1ccc2[nH]c(C(=O)NCCN3CCCCC3)cc2c1 | -0.647%
22 | Cc1ccc(C(=O)NNc2nc3ccccc3nc2C(F)(F)F)cc1 | 6.48%

Row | Structure (SMILES) | hERG current change (%, negative = inhibition) at 10uM
23 | Brc1ccc(-c2nnc3ccc(N4CCN(c5ccccc5)CC4)nn23)cc1 | 5.09%
24 | COc1ccccc1NS(=O)(=O)c1cc(Cl)ccc1OC | -6.58%
25 | O=C(COC(=O)c1ccc(O)cc1)Nc1ccc(Cl)cc1 | -1.41%
26 | Cc1ccccc1CNS(=O)(=O)c1ccc2c(c1)C(C)(C)C(=O)N2C | -18.6%
27 | COc1ccc(Nc2n[nH]c(N)c2C(N)=O)cc1 | 15%
28 | COc1cc2c(cc1O)C(Cc1ccc(O)cc1)[N+](C)([O-])CC2 (stereo not drawn) | 18.8%
29 | CN(C)/N=C/C=C1\CCC/C(=C/c2cccs2)C1=O | 4.73%
30 | COc1ccccc1OCC(=O)Nc1cccc(S(=O)(=O)NC2=NCCCCC2)c1 | -4.65%
31 | COc1ccccc1C(=O)Nc1cc(C)on1 | 7.07%
32 | COCc1nn2c(N)c(C#N)cnc2c1-c1ccccc1 | 8.24%
33 | COc1cc(Cl)ccc1NC(=O)COc1ccccc1C(=O)NN | -15.4%
34 | O=C(CNS(=O)(=O)c1ccccc1)N1CCCC1 | 15.3%
35 | Cc1ncc([N+](=O)[O-])n1CCOC(=O)NC(NCc1ccccc1)C(Cl)(Cl)Cl (stereo not drawn) | -15.8%
36 | O=C(COC(=O)CCc1c[nH]c2ccccc12)Nc1ccc([N+](=O)[O-])cc1 | 15.1%
37 | CCOC(=O)c1c(N)sc2c(NC(C)=O)cccc12 | 7.86%
38 | O=C(N/N=C/c1ccccc1O)C1CCCC1 | 8.05%
39 | CC(C)CCNC(=O)CC1Nc2c3ccccc3nc(=S)n2C1=O (stereo not drawn) | 10.2%
40 | CC(C)(C)c1ccc(C2(C)NC(=O)N(CC(=O)c3ccc[nH]3)C2=O)cc1 (stereo not drawn) | -0.164%
41 | COc1ccc(-c2nn(C)c(=O)c3ccccc23)cc1NS(C)(=O)=O | -47.3%
42 | COc1ccc(/C=N/NC(=O)CNC(=O)c2ccc(S(=O)(=O)N3CCCC3)cc2)c(OC)c1 | 2.95%
43 | CCCCN(C)CCCNC(=O)c1cn(C)c2ccc(S(=O)(=O)N(C)C3CCCCC3)cc2c1=O | -75%
44 | COc1ccc(C2CC(c3ccc4ccccc4c3)=NN2C(=O)CN2C(=O)CCC2=O)cc1 (stereo not drawn) | 7.37%

Row | Structure (SMILES) | hERG current change (%, negative = inhibition) at 10uM
45 | Cc1cccc(C)c1OCC(=O)NC(Cc1c[nH]c2ccccc12)C(=O)O (stereo not drawn) | 23.7%
46 | COc1cccc(C(=O)CSc2nnnn2C)c1 | 4.88%
47 | CC1(C)Cc2c(sc3ncn4nc(CCC(=O)O)c(=O)nc4c23)CO1 | 8.68%
48 | N#CCCN(C(=O)COC(=O)c1cccc(S(=O)(=O)N2CCCC2)c1)c1ccc(F)cc1 | -26%
49 | COCCNC(=O)CNC(=O)c1nn(-c2ccc(OC)c(Cl)c2)c(=O)c2ccccc12 | 6.48%
50 | Cc1cc(C(F)F)n2nc(C(=O)Nc3ccc(S(=O)(=O)N4CCCC4)cc3)nc2n1 | 4.87%
51 | O=P(Nc1ccccc1)(Nc1ccccc1)Oc1ccc(Cl)cc1 | -17.7%
52 | CCCC[C@@H]1CNC(=S)N1CCc1cccc(F)c1 | -0.566%
53 | CC1(OC(=O)C2CCCC2)C(=O)C=C2C=C(c3ccsc3)N(CCCCO)C=C2C1=O (stereo not drawn) | 1.16%
54 | Cn1nc(C(=O)NC(C)(C)C)c2ccccc21 | -0.914%
55 | CC(NC(=O)CCC(=O)NC(C)C1COc2ccccc2O1)C1COc2ccccc2O1 (stereo not drawn) | -0.222%
56 | COc1ccccc1N1CC(C(=O)Nc2cccc(C(=O)O)c2)CC1=O (stereo not drawn) | -6.51%
57 | COc1cccc(NC(=O)COC(=O)c2ccccc2C(=O)N2CCN(c3ccccc3)CC2)c1 | -11.8%
58 | COc1ccc(-c2nn(-c3ccccc3)cc2/C=N/NS(=O)(=O)c2ccccc2)cc1 | 10.2%
59 | CCCCNC(=O)c1cc(-c2ccc3c(c2)OCO3)on1 | 7.3%
60 | O=C(CCN1C(=O)c2ccccc2C1=O)Nc1ccccn1 | 3.92%
61 | CSCCC(C(=O)NC1=NCCS1)N1C(=O)c2ccccc2C1=O (stereo not drawn) | -8.43%
62 | Br.COc1ccccc1NS(=O)(=O)c1cc(N2Cc3ccccc3C2=N)ccc1N1CCOCC1 | -73.3%
63 | COc1ccc(NC(=O)c2cccc(S(=O)(=O)N3CCCC3)c2)cc1OC | -4.78%
64 | O=C(COC(=O)CCC(=O)c1ccc(F)cc1)Nc1ccccc1 | -2.84%
65 | NNC(=O)CCc1nc2ccccc2[nH]1 | 23.2%
66 | CC(=O)c1ccccc1C(=O)N1CCCC(C(=O)c2ccc(C(F)(F)F)cc2)C1 (stereo not drawn) | -8.18%

Row | Structure (SMILES) | hERG current change (%, negative = inhibition) at 10uM
67 | O=C1C(=O)N(Cc2cccnc2)C(c2ccccn2)/C1=C(/O)c1ccc(Br)cc1 (stereo not drawn) | 11.4%
68 | O=C(c1cnn2ccccc12)N1CCc2ccccc21 | 0.772%
69 | O=C(NCc1nnc(SCC(=O)N2CCCc3ccccc32)o1)c1ccco1 | 13.2%
70 | CCc1cc(=O)oc2c3c(cc(OCC(=O)NCc4ccncc4)c12)OC(C)(C)CC3 | -34.4%
71 | O=C(CN1CCOCC1)Nc1ccccc1 | 13.8%
72 | COc1cccc(OCc2nnc(SCC(=O)NNC(=O)C3CCCCC3)n2C)c1 | 24.5%
73 | COc1ccc(-c2nc(NC(=O)c3ccc(OCC(=O)Nc4ccc(F)cc4)c(OC)c3)sc2C)cc1 | 11.7%
74 | CC(=O)NS(=O)(=O)c1ccc(NC(=O)/C=C/c2cn(-c3ccccc3)nc2-c2ccccc2)cc1 | 34%
75 | Cc1cc(C)n2nc(C(F)(F)F)c(-c3ccccc3)c2n1 | -0.933%
76 | CCN1CCN(Cc2nnc(-c3ccc(C)cc3)o2)CC1 | 1.66%
77 | CC1(C)N=C(SCC(=O)Nc2ccc(Cl)cc2)C(c2ccccc2)=N1 | -23.9%
78 | C=CCNC(=O)COc1ccc(S(=O)(=O)N2CCCC2)cc1 | -3.51%
79 | O=C(Cc1ccccc1)NNC(=O)c1cnccn1 | 2.87%
80 | C/C(=N/OC(=O)N(C)C)c1ncc(C(F)(F)F)cc1N1CCOCC1 | 9.39%
81 | Cc1ccsc1CNC1C2CC3CC(C2)CC1C3.Cl (stereo not drawn) | -8.11%
82 | O=C(Nc1ccc2c(c1)N(Cc1ccccc1)C(=O)c1ccccc1S2)NC1CC1 | 6.01%
83 | Nc1ccc(C(=O)Nc2ccc(OC(F)(F)C(F)F)c(NC(=O)c3ccc(N)cc3)c2)cc1 | 5.35%
84 | COc1ccccc1N1CCN(CCCNc2c(C)c(=O)n(C)c(=O)n2C)CC1 | -5.42%
85 | CCCSC1=C(C#N)C(c2cccnc2)C(C(=O)OCC)=C(c2ccccc2)N1 (stereo not drawn) | -16.5%
86 | Cc1ccc(CNC(=O)c2cc(-c3ccccc3)nn2CC2CC(c3cccnc3)=NO2)cc1 (stereo not drawn) | -69.7%
87 | Cc1ccc2cc(CN(Cc3ccco3)C(=O)C3CCCCC3)c(=O)[nH]c2c1C | 3.51%
